The target of one assay is T1, EID2 peptide #10 (D206A) (human, D206A (stands in the printed letters), biotin, linked via the SGSG spacer).
T1 construct: source: synthetic peptide (Mimotopes)
T1 peptide: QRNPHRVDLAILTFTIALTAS
As to the kind of experiment: ELISA; ELISA of EID2 peptides with MAGEA3(94-314) protein; unpublished data.

Protein sequences, listed by entry. Tags and fused reporters are not part of them. Residues count along the entry.
UniProt P43357, residues 94-314: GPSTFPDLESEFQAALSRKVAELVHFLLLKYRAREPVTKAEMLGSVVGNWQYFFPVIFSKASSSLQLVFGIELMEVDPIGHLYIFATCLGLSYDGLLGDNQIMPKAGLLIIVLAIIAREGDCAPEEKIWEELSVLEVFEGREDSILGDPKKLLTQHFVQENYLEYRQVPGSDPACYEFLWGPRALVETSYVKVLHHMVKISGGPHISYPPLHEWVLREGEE
UniProt P43355: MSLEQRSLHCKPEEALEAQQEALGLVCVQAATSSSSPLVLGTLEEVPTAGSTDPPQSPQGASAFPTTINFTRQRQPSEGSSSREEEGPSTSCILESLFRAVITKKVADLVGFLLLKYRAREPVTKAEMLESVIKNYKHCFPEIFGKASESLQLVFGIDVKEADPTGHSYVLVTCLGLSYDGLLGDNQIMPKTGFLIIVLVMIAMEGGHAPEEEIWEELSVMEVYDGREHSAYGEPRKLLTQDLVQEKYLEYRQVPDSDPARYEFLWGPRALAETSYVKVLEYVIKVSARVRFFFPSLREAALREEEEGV

The target in assay [1] is T2, EID2 WT peptide (aa 197-217) (human).
T2 sequence (peptide, biotin, linked via the SGSG spacer): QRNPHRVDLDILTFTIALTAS
The assay is described as above.

Another assay addresses T3, EID2 peptide #19 (S217A) (human, S217A (stands in the printed letters), biotin, linked via the SGSG spacer).
T3 construct: source: synthetic peptide (Mimotopes)
T3 peptide: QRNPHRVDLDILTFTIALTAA
The assay is described as above.

Assay [2] deals with T4, EID2 peptide #1 (Q197A) (human, Q197A (stands in the printed letters), biotin, linked via the SGSG spacer).
T4 construct: source: synthetic peptide (Mimotopes)
T4 peptide: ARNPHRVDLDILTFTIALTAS
The assay is described as above.

In assay [3] the target is T5, EID2 peptide #8 (D204A) (human).
T5 sequence (peptide, biotin, linked via the SGSG spacer): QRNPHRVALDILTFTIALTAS
The description is as above.

In the next assay the target is T6, EID2 peptide #5 (human).
T6 sequence (peptide, biotin, linked via the SGSG spacer): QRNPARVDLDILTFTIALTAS
The assay is described as above.

The target of another assay is T7, EID2 peptide #15 (human).
T7 sequence (peptide, biotin, linked via the SGSG spacer): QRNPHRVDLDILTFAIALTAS
Described as above.

The target of a further assay is T8, EID2 peptide #12 (L208A) (human, L208A (stands in the printed letters), biotin, linked via the SGSG spacer).
T8 construct: source: synthetic peptide (Mimotopes)
T8 peptide: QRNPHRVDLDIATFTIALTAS
The assay is described as above.

The next assay has as its target T9, EID2 peptide #7 (human).
T9 sequence (peptide, biotin, linked via the SGSG spacer): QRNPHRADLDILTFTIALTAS
Described as above.

A further assay deals with T10, EID2 peptide #3 (human).
T10 sequence (peptide, biotin, linked via the SGSG spacer): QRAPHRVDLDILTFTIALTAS
The description is as above.

In another assay the target is T11, EID2 peptide #9 (L205A) (human, L205A (stands in the printed letters), biotin, linked via the SGSG spacer).
T11 construct: source: synthetic peptide (Mimotopes)
T11 peptide: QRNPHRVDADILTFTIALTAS
The description is as above.

A further assay concerns the target T12, EID2 peptide #18 (T215A) (human, T215A (stands in the printed letters), biotin, linked via the SGSG spacer).
T12 construct: source: synthetic peptide (Mimotopes)
T12 peptide: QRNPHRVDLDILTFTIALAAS
The description is as above.

In the next assay the target is T13, EID2 peptide #13 (human).
T13 sequence (peptide, biotin, linked via the SGSG spacer): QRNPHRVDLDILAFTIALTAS
The description is as above.

In the next assay the target is T14, EID2 peptide #4 (human).
T14 sequence (peptide, biotin, linked via the SGSG spacer): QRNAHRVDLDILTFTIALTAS
Described as above.

Another assay addresses T15, EID2 peptide #11 (I207A) (human, I207A (stands in the printed letters), biotin, linked via the SGSG spacer).
T15 construct: source: synthetic peptide (Mimotopes)
T15 peptide: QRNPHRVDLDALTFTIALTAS
Described as above.

In assay [4] the target is T16, GST-His-S-tagged EID1(aa146-177) (human) (UniProt Q9Y6B2).
T16 sequence: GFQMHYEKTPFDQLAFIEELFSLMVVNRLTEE
The assay is described as follows: pull-down; GST-His-S fusion protein extracts pre-incubated with S-protein agarose beads; in vitro translated MAGE proteins added in 200 µl HEPES buffer, overnight; autoradiography; only the target purified.

The target of assay [5] is T17, GST-His-S-tagged NSE4a(aa150-179) (human) (UniProt Q9NXX6).
T17 sequence: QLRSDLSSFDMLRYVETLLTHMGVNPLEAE
The assay is described as above.

In assay [6] the target is T18, GST-His-S-tagged EID2(aa197-225) (human).
T18 sequence: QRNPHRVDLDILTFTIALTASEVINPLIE
The assay is described as above.

The target of assay [7] is T19, GST-His-S-tagged EID2b(aa135-161) (human) (UniProt Q96D98).
T19 sequence: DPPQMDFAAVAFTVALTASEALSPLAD
Described as above.

For assay [8], the target named is T20, GST-His-S-NSE4b(106-135) (human).
T20 sequence: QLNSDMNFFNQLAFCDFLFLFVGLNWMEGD
The description is as above.

The target in assay [9] is T2, EID2 WT peptide (aa 197-217) (human). As to the kind of experiment: pull-down; biotin-tagged EID2 peptides pre-bound to streptavidin-agarose beads; in vitro expressed proteins in 200 µl PBS, 2 h at 4°C; phosphorimaging; only the target purified.
Assay [10] addresses T21, His-MBP-tagged Nse3(200-307) (S. pombe) (UniProt Q9Y7U4).
T21 sequence: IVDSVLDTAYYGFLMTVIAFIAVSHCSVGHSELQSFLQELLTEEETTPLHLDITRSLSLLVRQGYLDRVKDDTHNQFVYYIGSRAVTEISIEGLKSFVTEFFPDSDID
The assay is described as follows: pull-down; His-MBP-Nse3(200-307) extract pre-bound to amylose resin; in vitro translated Nse4 fragments added in 200 µl HEPES buffer, overnight; autoradiography; only the target purified.

In assay [11] the target is T4, EID2 peptide #1 (Q197A). As to the kind of experiment: pull-down; biotin-tagged EID2 peptides pre-bound to streptavidin-agarose beads; in vitro expressed proteins in 200 µl PBS, 2 h at 4°C; phosphorimaging; only the target purified.
The next assay has as its target T22, EID2 peptide #2 (R198A) (human, R198A (stands in the printed letters), biotin, linked via the SGSG spacer).
T22 construct: source: synthetic peptide (Mimotopes)
T22 peptide: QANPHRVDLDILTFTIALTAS
Described as above.

The target of assay [12] is T2, EID2 WT peptide (aa 197-217) (human). The assay is described as follows: pull-down; as a6 with in vitro expressed MAGEC2(129-339); data not shown; only the target purified.

No constants are given. Whether binding was seen depends on the method and setting. For part of these data: In cells and extracts the contact can be indirect. Some binding calls cover weakened binding; strength is not graded here. For part of these data: Sequences can lack the tags named with a protein.

Regarding “MAGEA3(94-314) protein (from UniProt P43357 94-314) (domain or fragment)”, the binding entry (with EID2 peptide #10 (D206A); in assay [1]; with EID2 peptide #19 (S217A); in the assay with EID2 peptide #1 (Q197A) [2]; in assay [3]; in the assay with EID2 peptide #5 (human)) was “binds” throughout. Also, the binding result with EID2 peptide #15 (human), in the assay with EID2 peptide #12 (L208A), with EID2 peptide #7 (human), with EID2 peptide #3 (human), in the assay with EID2 peptide #9 (L205A) and in the assay with EID2 peptide #18 (T215A) was “binds” each time. For the same molecule, the binding result with EID2 peptide #13 (human), with EID2 peptide #4 (human) and in the assay with EID2 peptide #11 (I207A) was “binds” each time.
For “MAGEA1 (aa 1-309) (from UniProt P43355 1-309)”, the binding result in assay [4], in [5], in assay [6], in assay [7], in [8] and in assay [9] was “binds” throughout.

B1: Nse4(1-77) fragment (domain or fragment, UniProt Q6BDR8 1-77)
chain: MSSIDKRDLRKRYRNLINKVQESRLELVDEENNNLYETITTANDLFSSVDAPTEATLDALLLTKTVDLASIKARQLH
For the molecule B1, in assay [10], the binding result is listed as “no binding”.

B2: MAGEC2 (aa 6-373) (protein, UniProt Q9UBF1 6-373)
chain: GVPFRNVDNDSPTSVELEDWVDAQHPTDEEEEEASSASSTLYLVFSPSSFSTSSSLILGGPEEEEVPSGVIPNLTESIPSSPPQGPPQGPSQSPLSSCCSSFSWSSFSEESSSQKGEDTGTCQGLPDSESSFTYTLDEKVAELVEFLLLKYEAEEPVTEAEMLMIVIKYKDYFPVILKRAREFMELLFGLALIEVGPDHFCVFANTVGLTDEGSDDEGMPENSLLIIILSVIFIKGNCASEEVIWEVLNAVGVYAGREHFVYGEPRELLTKVWVQGHYLEYREVPHSSPPYYEFLWGPRAHSESIKKKVLEFLAKLNNTVPSSFPSWYKDALKDVEERVQATIDTADDATVMASESLSVMSSNVSFSE
Turning to B2, the binding result in assay [8] and in [9] was “binds” in each case.

B3: Nse4(1-110) fragment (domain or fragment, UniProt Q6BDR8 1-110)
chain: MSSIDKRDLRKRYRNLINKVQESRLELVDEENNNLYETITTANDLFSSVDAPTEATLDALLLTKTVDLASIKARQLHIGRPKFNIELFTKNIKQFLNYPTSHSNVTRIQE
As for B3, the binding result in [10] is recorded as “binds”.

B4: necdin (aa 1-321) (protein, UniProt Q99608 1-321)
chain: MSEQSKDLSDPNFAAEAPNSEVHSSPGVSEGVPPSATLAEPQSPPLGPTAAPQAAPPPQAPNDEGDPKALQQAAEEGRAHQAPSAAQPGPAPPAPAQLVQKAHELMWYVLVKDQKKMIIWFPDMVKDVIGSYKKWCRSILRRTSLILARVFGLHLRLTSLHTMEFALVKALEPEELDRVALSNRMPMTGLLLMILSLIYVKGRGARESAVWNVLRILGLRPWKKHSTFGDVRKLITEEFVQMNYLKYQRVPYVEPPEYEFFWGSRASREITKMQIMEFLARVFKKDPQAWPSRYREALEEARALREANPTAHYPRSSVSED
For B4, the binding result in [4], in assay [5], in assay [6], in assay [7], in assay [8] and in assay [9] was “binds” each time. Further, the binding result in the assay with EID2 peptide #1 (Q197A) [11] and with EID2 peptide #2 (R198A) was “binds” in each case.

B5: in vitro expressed MAGEC2(129-339) (domain or fragment, UniProt Q9UBF1 129-339)
chain: GLPDSESSFTYTLDEKVAELVEFLLLKYEAEEPVTEAEMLMIVIKYKDYFPVILKRAREFMELLFGLALIEVGPDHFCVFANTVGLTDEGSDDEGMPENSLLIIILSVIFIKGNCASEEVIWEVLNAVGVYAGREHFVYGEPRELLTKVWVQGHYLEYREVPHSSPPYYEFLWGPRAHSESIKKKVLEFLAKLNNTVPSSFPSWYKDALKD
Regarding B5, the binding entry in [12] is listed as “binds”.
In the case of QLHIGRPKFNIELFTKNIKQFLNYPTSHSN (domain or fragment) [Nse4(75-104) fragment], the binding result in [10] is “binds”.

B6: MAGED4b (aa 1-741) (protein, UniProt Q96JG8 1-741)
chain: MAEGSFSVQSESYSVEDMDEGSDEVGEEEMVEGNDYEEFGAFGGYGTLTSFDIHILRAFGSLGPGLRILSNEPWELENPVLAQTLVEALQLDPETLANETAARAANVARAAASNRAARAAAAAARTAFSQVVASHRVATPQVSGEDTQPTTYAAEAQGPTPEPPLASPQTSQMLVTSKMAAPEAPATSAQSQTGSPAQEAATEGPSSACAFSQAPCAREVDANRPSTAFLGQNDVFDFTQPAGVSGMAFPRPKRPAPAQEAATEGPSAASGVPQTGPGREVAATRPKTTKSGKALAKTRWVEPQNVVAAAAAKAKMATSIPEPEGAAAATAQHSAEPWARMGGKRTKKSKHLDDEYESSEEERETPAVPPTWRASQPSLTVRAQLAPRPPMAPRSQIPSRHVLCLPPRNVTLLQERANKLVKYLMIKDYKKIPIKRADMLKDVIREYDEHFPEIIERATYTLEKKFGIHLKEIDKEEHLYILVCTRDSSARLLGKTKDTPRLSLLLVILGVIFMNGNRASEAVLWEALRKMGLRPGVRHPFLGDLRKLITDDFVKQKYLEYKKIPNSNPPEYEFLWGLRARHETSKMRVLRFIAQNQNRDPREWKAHFLEAVDDAFKTMDVDMAEEHARAQMRAQMNIGDEALIGRWSWDDIQVELLTWDEDGDFGDAWARIPFAFWARYHQYILNSNRANRRATWRAGVSSGTNGGASTSVLDGPSTSSTIRTRNAARAGASFFSWIQHR
With B6, in assay [8], the binding result is given as “binds”.

Values taken from publication PMC3335016, “Analysis of the Nse3/MAGE-Binding Domain of the Nse4/EID Family Proteins” (PLoS ONE, 2012).
